# Measurements from PubChem BioAssay (NCATS).
# “And” between values parts separate entries of the source, which are not always exact repeats. Equal values may be shown once. Inconclusive results, whose numbers are uncertain, are shown with a selection of clear calls. For part of these data: A potency beside an inconclusive call is a rough fit, not a confirmed value. The source made the active and inactive calls. Unless noted, the call rests on the fitted dose curve; in most records, active means well fitted curve in either direction with a large enough effect (not every such curve was filed as active); inconclusive means small, poorly fitted or top-dose-only effect, or another doubt; inactive means flat fitted curve, though single readings scatter.
# Legend:
# [1] = NFAT Signaling Pathway (AID 444); conditions: Jurkat NFAT-bla M1, carbachol, beta-lactamase ratio, 5 h;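 further: carbachol stimulus at about its EC50 of 1 µM final; on the % scale 0 is the no-effect control and ±100 the full control effect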
# Outline: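 Jurkat cells with NFAT-driven β-lactamase reporter and co-expressed M1 receptor, stimulated with carbachol (final 1 uM, ~EC50), compound titration, 5 h at 37 °C. CCF4 loaded 1 h at RT; 460/530 nm ratio gave %activity and AC50.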
# [2] = molecular target: Mitogen-activated protein kinase 10 (Mus musculus) (UniProt Q61831); assay: JNK3 AlphaScreen Assay (AID 530); conditions: JNK3 lysate, c-Jun phosphorylation; activity change, negative = inhibition: at 57.1 µM (top of the series);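 further: kinase came from lysate of stimulated human HepG2 cells; signal reports phosphorylation of biotinylated GST-cJun 1-79 at Ser73 with 10 µM ATP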; further: potency means the concentration at half of the fitted maximal effect; on activity change, negative = inhibition: on the % scale 0 is the no-effect control and ±100 the full control effect
# Outline: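 Activity was read by AlphaScreen after JNK3-containing HepG2 lysate (cytokine pre-activated) phosphorylated biotinylated GST-cJun with 10 uM ATP at room temperature. Phospho-Ser73 cJun antibody with Protein-A acceptor beads provided detection.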
# [3] = qHTS Assay for Identification of Small Molecule Antagonists for NFkB Signaling Pathway (AID 895; active means well fitted inhibition curve with a large enough effect in the signal ratio, with a control signal flat, not every such curve was filed as active; inconclusive means small, poorly fitted or top-dose-only effect, or effect the other way, or a change in a side signal; the % refers to the signal ratio; further: on the % scale 0 is the no-effect control and ±100 the full control effect); conditions: NFkB beta-lactamase reporter cells, FRET ratio 460/530, stimulated with 10 pM TNF alpha; activity change, negative = inhibition: at 38.3 µM (top of the series)
# Outline: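 ME-180 NFkB-bla cells (beta-lactamase under NFkB response element), plated overnight, treated with compound then 10 pM TNF alpha (about EC50) for 5 hrs at 37 C. LiveBLAzer FRET read at 460/530 nm emission, 405 nm excitation.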
# [4] = qHTS Assay for Identification of Small Molecule Antagonists for Thrombopoietin (TPO) Signaling Pathway (AID 918; active means well fitted curve in the direction sought with a large enough effect; inconclusive means small, poorly fitted or top-dose-only effect, or another doubt; inactive means no such curve, though single readings can be large; an effect the other way counts as inactive or inconclusive; further: nearly all actives have a fitted effect of over 60% in size); conditions: TPO-dependent cell signaling reporter, antagonist mode; activity change, negative = inhibition: at 38.5 µM (top of the series)
# Outline: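 Inhibitors of TPO signaling are sought by stimulating IL-3-starved murine Ba/F3 cells (human TPO receptor, Glycoprotein IIb-driven luciferase) with TPO at its EC50 of 26 pM alongside compound. After 24 hrs at 37 C, reporter luminescence is measured.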
# [5] = Stat Signaling Pathway (AID 446); conditions: ME-180 (cervical carcinoma) SIE beta-lactamase reporter, IL-6 stimulated, 5 h; at 7.69 µM (top of the series) unless noted;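 further: ME-180 cervical cancer cells given 40 pM IL-6 alongside compound; SIE-controlled beta-lactamase reporter measured as 460/530 nm FRET emission ratio; top concentration of the series differs between compounds; on the % scale 0 is the no-effect control and ±100 the full control effect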
# Outline: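 Overnight-plated ME-180 cells bearing a STAT Inducible Element beta-lactamase reporter; 5 h co-exposure to compound and 40 pM IL-6; values normalized to 300 pM IL-6 and 125 nM JAK inhibitor controls.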
# [6] = molecular target: Glucocorticoid receptor (Homo sapiens) (UniProt P04150); assay: GR-GFP Redistribution (AID 450;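 active means compounds whose dose series gives a full or clear partial fitted curve of increased nuclear translocation; inconclusive means weak partial curve or effect only at the top dose; inactive means no dose-dependent translocation response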; further: potency means the concentration at half of the fitted maximal effect); conditions: U2OS GR-GFP nuclear translocation, laser cytometry, 2 h
# Chain of UniProt P04150 (P04150 whole entry, looked up): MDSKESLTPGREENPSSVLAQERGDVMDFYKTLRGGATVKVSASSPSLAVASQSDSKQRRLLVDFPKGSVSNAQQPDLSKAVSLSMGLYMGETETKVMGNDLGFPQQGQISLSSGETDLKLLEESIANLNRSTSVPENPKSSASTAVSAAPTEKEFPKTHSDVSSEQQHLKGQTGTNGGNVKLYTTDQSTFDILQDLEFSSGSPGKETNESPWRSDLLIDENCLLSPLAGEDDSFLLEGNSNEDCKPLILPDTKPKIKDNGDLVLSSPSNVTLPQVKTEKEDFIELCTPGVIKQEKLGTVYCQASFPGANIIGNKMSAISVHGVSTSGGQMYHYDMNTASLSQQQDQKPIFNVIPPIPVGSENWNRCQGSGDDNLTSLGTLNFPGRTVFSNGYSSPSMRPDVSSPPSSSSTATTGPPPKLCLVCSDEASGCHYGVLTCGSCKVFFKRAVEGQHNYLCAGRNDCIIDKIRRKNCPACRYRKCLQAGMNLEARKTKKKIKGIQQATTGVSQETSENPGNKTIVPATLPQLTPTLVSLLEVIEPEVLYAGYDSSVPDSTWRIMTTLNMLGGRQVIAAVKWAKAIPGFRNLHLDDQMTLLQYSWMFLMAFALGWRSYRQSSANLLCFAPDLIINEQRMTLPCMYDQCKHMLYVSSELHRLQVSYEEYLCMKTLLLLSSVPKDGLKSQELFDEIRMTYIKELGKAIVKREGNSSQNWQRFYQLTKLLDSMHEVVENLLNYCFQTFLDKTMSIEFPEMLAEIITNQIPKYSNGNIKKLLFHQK
# [7] = molecular target: 3',5'-cyclic-AMP phosphodiesterase 4B (Homo sapiens) (UniProt Q07343); assay: qHTS Assay for Inhibitors of PDE-IV (AID 607; active means well fitted activation curve with a large enough effect in the main read-out, with a control signal flat, not every such curve was filed as active; inconclusive means small, poorly fitted or top-dose-only effect, or effect the other way, or a change in a side signal; further: potency means the concentration at half of the fitted maximal effect); conditions: HEK293 ACTOne CNG channel cells, membrane potential fluorescence; activation (PDE inhibition): at 22.9 µM (top of the series)
# Chain of UniProt Q07343 (Q07343 whole entry, looked up): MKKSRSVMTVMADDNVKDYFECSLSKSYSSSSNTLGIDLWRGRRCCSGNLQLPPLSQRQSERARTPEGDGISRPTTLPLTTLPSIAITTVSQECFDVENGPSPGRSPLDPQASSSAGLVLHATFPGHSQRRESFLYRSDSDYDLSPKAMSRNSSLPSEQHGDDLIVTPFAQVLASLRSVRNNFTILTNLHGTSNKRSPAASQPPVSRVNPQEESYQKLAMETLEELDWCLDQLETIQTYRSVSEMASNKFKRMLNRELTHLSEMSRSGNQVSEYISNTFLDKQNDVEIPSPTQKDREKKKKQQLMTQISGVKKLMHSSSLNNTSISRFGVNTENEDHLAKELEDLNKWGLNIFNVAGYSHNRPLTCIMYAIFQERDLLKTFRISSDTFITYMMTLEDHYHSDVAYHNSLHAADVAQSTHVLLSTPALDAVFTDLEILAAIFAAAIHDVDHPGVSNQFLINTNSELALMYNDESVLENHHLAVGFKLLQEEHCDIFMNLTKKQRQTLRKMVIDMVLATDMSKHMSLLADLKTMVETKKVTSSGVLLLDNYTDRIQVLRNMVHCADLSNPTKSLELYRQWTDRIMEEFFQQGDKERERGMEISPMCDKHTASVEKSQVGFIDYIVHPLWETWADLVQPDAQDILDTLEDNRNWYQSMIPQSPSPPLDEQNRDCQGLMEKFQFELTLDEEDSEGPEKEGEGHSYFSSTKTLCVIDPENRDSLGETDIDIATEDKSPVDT
# Outline: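 Live HEK293 cells with a modified cyclic nucleotide-gated (CNG) channel report intracellular cAMP via membrane-potential dye fluorescence (ex 535/em 590 nm). Endogenous PDE-IV was targeted. Compounds were tested at up to 22.9 uM final; RO 20-1724 100 uM served as control.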
# [8] = molecular target: Cytochrome P450 2C9 (Homo sapiens) (UniProt P11712); assay: qHTS Assay for Inhibitors and Substrates of Cytochrome P450 2C9 (AID 883; active means well fitted curve in the direction sought with a large enough effect; inconclusive means small, poorly fitted or top-dose-only effect, or another doubt; inactive means no such curve, though single readings can be large; an effect the other way counts as inactive or inconclusive; further: on the % scale 0 is the no-effect control and ±100 the full control effect; nearly all actives have a fitted effect of over 60% in size); conditions: recombinant CYP2C9, luciferin-H luminescence, 60 min; activity change, negative = inhibition: at 57.1 µM (top of the series)
# Chain of UniProt P11712 (P11712 whole entry, looked up): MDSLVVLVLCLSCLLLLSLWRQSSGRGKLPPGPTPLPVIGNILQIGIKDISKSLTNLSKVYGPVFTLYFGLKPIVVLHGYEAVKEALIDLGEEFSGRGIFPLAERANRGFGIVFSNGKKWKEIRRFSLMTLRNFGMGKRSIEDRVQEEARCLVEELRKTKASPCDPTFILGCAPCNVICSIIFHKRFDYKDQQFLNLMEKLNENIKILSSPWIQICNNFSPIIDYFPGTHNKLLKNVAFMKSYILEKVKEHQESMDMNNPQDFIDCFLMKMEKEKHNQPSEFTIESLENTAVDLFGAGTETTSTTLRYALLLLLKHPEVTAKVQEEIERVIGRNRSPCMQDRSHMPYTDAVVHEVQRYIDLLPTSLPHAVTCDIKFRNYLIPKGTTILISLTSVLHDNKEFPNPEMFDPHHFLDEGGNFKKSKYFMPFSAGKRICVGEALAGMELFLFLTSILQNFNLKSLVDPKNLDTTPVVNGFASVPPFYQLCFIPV
# Outline: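 10nM CYP2C9 + 100uM Luciferin-H (=KM), 25mM KPO4; cpd 10 min 37C; NADPH regen, 60 min 37C; stop/detect with P450 Glo-Buffer 20 min; luminescence. Norm. to 57uM sulphaphenazole as full inhibition.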
# [9] = at 17.2 µM (top of the series) unless noted
# Tags describe the fitted curve by direction and shape.
compound,measurement,setting,value
CC1=C(C(=O)O)N2C(=O)[C@@H](NC(=O)[C@@H](N)c3ccccc3)[C@@H]2SC1,"activity change, negative = inhibition",[1]; at 17.2 µM (top of the series),inactive: -9.84%
same,"activity change, negative = inhibition",[1]; at 38 µM (top of the series),inactive: -0.753%
same,Potency,[2],"inconclusive: 3.16 µM [activator, partial curve] and inactive"
same,Potency,[3],inactive
same,"activity change, negative = inhibition",[4],inconclusive: -15.1% [phenotype inactive]
COc1ccc(-n2c(=O)c(-c3cccc(Cl)c3)nc3cncnc32)cc1,"activity change, negative = inhibition",[1]; [9],inactive: -14.1% [at 7.69 µM]
CCCCOC(=O)CSc1nc(N)c(C#N)c(-c2ccc(OC)cc2)c1C#N,"activity change, negative = inhibition",[1]; [9],inactive: -0.768%
same,"activity, negative = inhibition",[5],inconclusive: -45.3% [inhibitor] [at 17.2 µM]
Cc1cc(C)n(-c2nnc(C)n2/N=C/c2ccccc2F)n1,"activity change, negative = inhibition",[1]; [9],inconclusive: -73.6% [inhibitor]
same,"activity, negative = inhibition",[5],inactive: 18% [at 17.2 µM]
CN1CCN(c2ncc3nc(-c4cc(F)cc(F)c4)c(=O)n(C4CC4)c3n2)CC1,"activity change, negative = inhibition",[1]; [9],inactive: -23.1% [at 7.69 µM]
same,"activity, negative = inhibition",[5],inconclusive: 172% [activator]
Cc1ccc(C2CC(c3cccs3)n3nc(N)nc3N2)cc1 (stereo unspecified),"activity change, negative = inhibition",[1]; [9],inactive: 6.31%
same,"activity, negative = inhibition",[5],inactive: 3.76% [at 17.2 µM]
CC(C)(C)n1nnc(CCc2nnn(C(C)(C)C)n2)n1,"activity change, negative = inhibition",[1]; [9],inactive: -17.9%
same,"activity, negative = inhibition",[5],inconclusive: 6.91% [activator] [at 17.2 µM]
COc1ccc2cc1Oc1ccc(cc1)C[C@H]1c3cc(c(OC)cc3CCN1C)Oc1c(OC)c(OC)cc3c1[C@@H](C2)N(C)CC3,"activity change, negative = inhibition",[1]; at 7.69 µM (top of the series),inconclusive: -75.3% [inhibitor]
same,"activity change, negative = inhibition",[1]; at 17.2 µM (top of the series),inconclusive: -46.2% [inhibitor]
same,Potency,[6],inconclusive: 35.9 µM [partial curve]
same,Potency,[7],"inconclusive: 9.51 µM [activator, partial curve] and inconclusive: 190 nM [activator, partial curve]"
same,Potency,[8],inactive
